The values below come from PubChem BioAssay AID1508642 (National Center for Advancing Translational Sciences (NCATS), 2021).

The structures appear in SMILES notation. The whole screen tested about 43,000 compounds, of which about 200 (0.47%) were called active. Roughly 12% stayed inconclusive and do not appear here. Calls come from the whole dose curve; as a rule, active = well fitted cell-killing curve with a large enough effect; inconclusive = small, poorly fitted or top-dose-only effect, or effect the other way; inactive = flat fitted curve, though single readings scatter. This is one part of the list.
% is set by controls: 0 for no effect and ±100 for the full control effect.

The nature of this assay: Cell viability qHTS assay in S16 Pmp22-F2sN cells. Note: nearly all actives have a fitted effect of over 65% in size. As to conditions: S16 Pmp22-F2sN Schwann cells (luciferase reporters placed in the Pmp22 gene) viability, CellTiter-Glo, 24 h; series mostly up to 57.5 µM; activity change, negative = cytotoxicity: at the top concentration. Put shortly:
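CellTiter-Glo counter-screen, qHTS, 1536-well. Cells: S16(c9) Pmp22-F2sN, 500-1,000/well in DMEM + 10% FBS. Cpd 23 nL pin transfer, 24 h, 37C/5% CO2. Read: luminescence, CCD imager.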
Take `COc1ccc(NC(=O)C2CCN(C(=O)c3sc4nc[nH]c(=O)c4c3C)CC2)cc1Cl`: the “activity change, negative = cytotoxicity” value was inactive: 3.37%.
Under `CN(CC(=O)Nc1ccc(Br)cc1)S(=O)(=O)c1cccc2nsnc12` stands inactive: -0.134%; under `CCOC(=O)C1CCN(c2nc3ccccc3nc2Cl)CC1`, inactive: 0.468%; under `COc1ccccc1NC(=O)CSc1nc2c(oc3ccccc32)c(=O)n1-c1ccccc1F`, inactive: 5.01%.
The result for `CN1C(=O)Cc2cc(S(=O)(=O)CCC(=O)N3CCN(c4ccc(Cl)cc4)CC3)ccc21` reads inactive: 3.64%.
Consider `Cc1cc2oc(C(=O)N(Cc3ccc(N(C)C)cc3)CC3CCCO3)c(C)c2cc1Cl` (stereo not drawn), for which the “activity change, negative = cytotoxicity” value is inactive: -3.4%.
Take `Cc1ccc(Cl)cc1-n1ncc2c(N3CCC(C(N)=O)CC3)ncnc21`: the “activity change, negative = cytotoxicity” value was inactive: 2.94%.
On to `O=C(CCn1c(=O)c2cccn2c2cccnc21)N1CCN(c2ccc(Cl)cc2)CC1`, for which the “activity change, negative = cytotoxicity” value is inactive: 11.2%.
In the case of `CNc1oc(/C=C/c2cc(OC)c(OC)c(OC)c2)nc1C#N`, the “activity change, negative = cytotoxicity” value is inactive: -6.79%.
With `Cc1ccc(S(=O)(=O)N2CCCc3cc(NC(=O)c4c(F)cccc4F)ccc32)cc1`, the “activity change, negative = cytotoxicity” value is inactive: -26.8%.
Under `Cc1nn(CC(=O)NCc2ccccc2Br)c(=O)c2cc3occc3n12` stands inactive: 4.59%; under `CCCCNC(=O)[C@@H](c1ccccc1)N1Cc2ccccc2C1=O`, inactive: 2.37%; under `CCc1ccc(C2=C(C)C(N3CCC(C(=O)NCc4ccc(C)o4)CC3)=NS2(=O)=O)cc1`, inactive: 1.42%.
Under `Cc1ccccc1C(=O)Nc1ccc(C(=O)OCc2cc(=O)n3c4c(sc3n2)CCCC4)cc1` stands inactive: -11.5%; under `Cc1ccc(-n2c(=O)c3ccc(C(=O)NCc4ccccc4Cl)cc3n(CC(N)=O)c2=O)cc1`, inactive: 1.83%.
Consider `Cc1ccc(C(=O)Nc2ccc(F)cc2)cc1S(=O)(=O)N1CCOCC1`, for which the “activity change, negative = cytotoxicity” value was inactive: -20%.
As to `CCOc1ccccc1NC(=O)CSc1nccn1Cc1ccc(F)cc1`, the “activity change, negative = cytotoxicity” value is inactive: 9.24%.
Take `O=C(OCC1CCCO1)c1ccc2c(c1)N(Cc1ccccc1F)C(=O)c1ccccc1S2(=O)=O` (stereo not drawn): the “activity change, negative = cytotoxicity” value is inactive: 19.3%.
Take `O=C(CCCn1c(=O)c2cccn2c2cccnc21)Nc1ccccc1Br`: the “activity change, negative = cytotoxicity” value was inactive: 19.6%.
In the case of `O=c1oc2ccc3ccccc3c2cc1-c1nnc(Nc2cccc(F)c2)s1`, the “activity change, negative = cytotoxicity” value is inactive: -1.98%.
Under `Cc1cccc(C)c1Nc1c(-c2ccccc2O)nc2ncccn12` stands inactive: -10.5%; under `Cc1ccccc1CNC(=O)c1ccc2c(c1)N(Cc1ccccc1)CCS2`, inactive: -2.66%; under `CCCCn1c(=O)c2oc3ccccc3c2n(CC(=O)Nc2ccccc2OC)c1=O`, inactive: 26.6%.
The result for `CCOC(=O)c1c(NC(=O)/C=C/c2ccc(OCC)cc2)sc2c1CCC2` reads inactive: 1.54%; that for `Cc1ccc(CNC(=O)Cn2cc(C(=O)c3ccc(Cl)cc3)c(=O)c3ccc(C)nc32)cc1`, inactive: -20.3%; that for `Cc1ccc(NC(CNS(=O)(=O)c2ccc(Cl)cc2)c2ccccc2)cc1` (stereo not drawn), inactive: -16.1%.
As to `Cc1ccc(CNC(=O)C2CCN(c3ncnc4c3nc3n4CCCCC3)CC2)cc1`, the “activity change, negative = cytotoxicity” value was inactive: -0.984%.
As for `CCOC(=O)C1CCCN(S(=O)(=O)c2cc(-c3cc(C)no3)ccc2C)C1` (stereo not drawn), the “activity change, negative = cytotoxicity” value was inactive: -1.56%.
Turning to `CCC(=O)N1c2ccc(S(=O)(=O)N3CCN(c4ccccc4Cl)CC3)cc2CC1C` (stereo not drawn), the “activity change, negative = cytotoxicity” value was inactive: -0.405%.
With `COc1cccc(CNC(=O)c2ccc(CS(=O)Cc3ccc(Cl)cc3)o2)c1` (stereo not drawn), the “activity change, negative = cytotoxicity” value is inactive: -13.2%.
For `Cc1ccc(C(=O)CSc2nnc3ccc4ccccc4n23)cc1`, the “activity change, negative = cytotoxicity” value is inactive: 7.21%.
Regarding `N#Cc1cc2c(=O)n3ccccc3nc2n(-c2nnc(SCc3ccccc3)s2)c1=O`, the “activity change, negative = cytotoxicity” value was inactive: 4.42%.
With `O=C(Cc1ccc(F)cc1)NCCc1csc(-c2ccc(C(F)(F)F)cc2)n1`, the “activity change, negative = cytotoxicity” value was inactive: -3.15%.
`CCOC(=O)c1cnc(NCc2ccc(Cl)cc2)c2ccccc12`: the “activity change, negative = cytotoxicity” value is inactive: -0.68%.
As to `Cn1c(CN2CCCCC2)nc2cc(NC(=O)c3ccc(Cl)cc3)ccc21`, the “activity change, negative = cytotoxicity” value is inactive: -6.56%.
In the case of `CCn1c(=O)cc(OCC(=O)Nc2ccccc2Cl)c2ccccc21`, the “activity change, negative = cytotoxicity” value is inactive: 2.18%.
Turning to `CCN(CC)C(=O)c1ccccc1NC(=O)c1cccc(S(=O)(=O)N2CCC(C)CC2)c1`, the “activity change, negative = cytotoxicity” value is inactive: 15.1%.
Under `Cc1c(C(=O)NCc2ccccc2)oc2c1-c1[nH]ncc1CC2` stands inactive: -1.09%.
`CCOc1ccccc1C1Nc2ccccc2-c2nnc(SCc3ccccc3)nc2O1` (stereo not drawn): the “activity change, negative = cytotoxicity” value was inactive: -1.32%.
With `COc1ccc(Br)cc1CNC(=O)c1ccc(-n2c(C)cc3c2CCC(C)C3)cc1` (stereo not drawn), the “activity change, negative = cytotoxicity” value is inactive: -25.8%.
In the case of `COCCCn1c(=N)c(C(=O)NC2CCCC2)cc2c(=O)n3cc(C)ccc3nc21`, the “activity change, negative = cytotoxicity” value was inactive: 4.86%.
On to `Cc1cc(O)c(CN2CCN(c3ccc(F)cc3)CC2)c2oc(=O)cc(C)c12`, for which the “activity change, negative = cytotoxicity” value is inactive: 10.8%.
In the case of `Cc1cccc(C(=O)Nc2nnc(S(=O)(=O)N3c4ccccc4CC3C)s2)c1` (stereo not drawn), the “activity change, negative = cytotoxicity” value was inactive: 2.4%.
As to `CCOc1ccc(-c2nnc(SCC(=O)NCCc3ccccc3)nc2-c2ccc(OCC)c(OC)c2)cc1OC`, the “activity change, negative = cytotoxicity” value is inactive: -2.68%.
With `Cc1oc2ncnc(N3CCCCC3)c2c1C(=O)Nc1cccc(F)c1`, the “activity change, negative = cytotoxicity” value is inactive: -11.7%.
The result for `CCc1ccc(CNC(=O)c2sc3ncnc(N(C)C4CCCCC4)c3c2C)cc1` reads inactive: 5.66%; that for `COc1ccc(-c2cc(-c3ccc(F)cc3)nc3c2COc2ccccc2-3)cc1`, inactive: 13.2%.
Turning to `CCOc1ccc(OCC)c(NC(=O)c2c(C)nn(-c3ccccc3)c2-n2cccc2)c1`, the “activity change, negative = cytotoxicity” value is inactive: -11.8%.
With `COc1ccc(CCCc2nnc(SCC(=O)Nc3ccc(Cl)cc3)o2)cc1`, the “activity change, negative = cytotoxicity” value was inactive: -0.528%.
Take `Cc1ccccc1CN1C(=O)C(O)(CC(=O)c2cccc(Br)c2)c2ccccc21` (stereo not drawn): the “activity change, negative = cytotoxicity” value is inactive: -23.8%.
Take `CCN(CC)C(=O)C1CCCN(c2ncnc3c2nc2n3CCCCC2)C1` (stereo not drawn): the “activity change, negative = cytotoxicity” value was inactive: -3.12%.
`COc1ccc(CCNC(=O)c2cc3c(=O)[nH]c4ccc(C)cc4c3s2)cc1OC`: the “activity change, negative = cytotoxicity” value was inactive: -0.78%.
As to `CCOC(=O)CNC(=O)Cn1nc(N2CCN(c3ccccc3)CC2)ccc1=O`, the “activity change, negative = cytotoxicity” value is inactive: 12.4%.
On to `CC(=O)c1cccc(NC(=O)c2cc(-c3ccc4c(c3)OCCO4)on2)c1`, for which the “activity change, negative = cytotoxicity” value is inactive: 3.43%.
Take `COC(=O)c1ccccc1NC(=O)CCCS(=O)(=O)c1nc(-c2ccccc2OC)cc(C(F)(F)F)n1`: the “activity change, negative = cytotoxicity” value was inactive: 6.92%.
`CCOc1ccccc1CNC(=O)CN1C(=O)C2CCCCN2c2ccc(C(=O)N(C)C)cc21` (stereo not drawn): the “activity change, negative = cytotoxicity” value was inactive: 5.01%.
Under `Cc1ccc(Cl)cc1N(C)C(=O)c1cc2ccc3cccnc3c2[nH]1` stands inactive: -13.2%; under `CCNC(=O)CC1C(=O)N(c2ccc(F)cc2)C(=O)N1Cc1ccc(C)cc1` (stereo not drawn), inactive: 10.6%; under `CCCCOc1ccc(C(=O)NCCc2csc3nc(-c4ccccc4F)nn23)cc1`, inactive: -13.8%.
On to `Cc1cc(NC(=O)CSc2ncc(C(=O)Nc3ccccc3)c(=O)n2C)no1`, for which the “activity change, negative = cytotoxicity” value is inactive: 1.14%.
The result for `O=C(NCc1ccccn1)c1nn(-c2ccccc2Cl)nc1CO` reads inactive: -3.12%; that for `COc1ccccc1CNC(=O)C(Cc1ccccc1)NS(=O)(=O)c1ccc2c(c1)CCN2C(C)=O` (stereo not drawn), inactive: 0.556%.
`Cc1ccccc1NC(=O)c1ccc(CNS(=O)(=O)c2ccc3c(c2)C(C)(C)C(=O)N3C)cc1`: the “activity change, negative = cytotoxicity” value is inactive: 0.128%.
